# Measured values reported in the supplement of paper PMC8728848.
# Some of the results follow.
# Tests used:
# Test in all cases: glycan array binding signal (z-score within array); higher = stronger binding
# Details in all cases: glycan notation: IUPAC condensed, linker removed
# [1] = target: Gal(a1-3)Gal(b1-4)GlcNAc(b1-2)Man
# How it was run: (§1)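 Arrays were curated from the Consortium for Functional Glycomics database, 3228 in total, and kept only where the protein sequence was available. Binding is expressed as a within-array Z-score. This score was averaged across arrays of the same protein sequence at different concentrations or buffers and across linkers, and negative values can be read as non-binding.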
# [2] = target: Gal(a1-3)Gal(b1-4)GlcNAc(b1-2)Man(a1-3)[Gal(a1-3)Gal(b1-4)GlcNAc(b1-2)Man(a1-6)]Man(b1-4)GlcNAc(b1-4)GlcNAc
# How it was run: as §1
# [3] = target: Gal(a1-3)Gal(b1-4)GlcNAc(b1-3)GalNAc
# How it was run: as §1
# [4] = target: Gal(a1-3)Gal(b1-4)GlcNAc(b1-6)GalNAc
# How it was run: as §1
# [5] = target: Gal(a1-3)Gal(b1-4)[Fuc(a1-3)]GlcNAc
# How it was run: as §1
# [6] = target: Gal(a1-3)Gal(b1-4)[Fuc(a1-3)]GlcNAc(b1-2)Man(a1-3)[Gal(a1-3)Gal(b1-4)[Fuc(a1-3)]GlcNAc(b1-2)Man(a1-6)]Man(b1-4)GlcNAc(b1-4)GlcNAc
# How it was run: as §1
# [7] = target: Gal(a1-3)GalNAc
# How it was run: as §1
# [8] = target: Gal(a1-3)[Gal(a1-4)]Gal(b1-4)GlcNAc
# How it was run: as §1
# [9] = target: Gal(a1-4)Gal(b1-3)GlcNAc(b1-2)Man(a1-3)[Gal(a1-4)Gal(b1-3)GlcNAc(b1-2)Man(a1-6)]Man(b1-4)GlcNAc(b1-4)GlcNAc
# How it was run: as §1
# [10] = target: Gal(a1-4)Gal(b1-4)Glc
# How it was run: as §1
# [11] = target: Gal(a1-4)Gal(b1-4)GlcNAc
# How it was run: as §1
# [12] = target: Gal(a1-4)Gal(b1-4)GlcNAc(b1-2)Man(a1-3)[Gal(a1-4)Gal(b1-4)GlcNAc(b1-2)Man(a1-6)]Man(b1-4)GlcNAc(b1-4)GlcNAc
# How it was run: as §1
# [13] = target: Gal(a1-4)Gal(b1-4)GlcNAc(b1-3)Gal(b1-4)Glc
# How it was run: as §1
# [14] = target: Gal(a1-4)GlcNAc
# How it was run: as §1
# [15] = target: Gal(a1-6)Glc
# How it was run: as §1
# [16] = target: Gal(b1-2)Gal
# How it was run: as §1
# [17] = target: Gal(b1-3)Gal
# How it was run: as §1
# [18] = target: Gal(b1-3)Gal(b1-4)GlcNAc
# How it was run: as §1
# [19] = target: Gal(b1-3)GalNAc
# How it was run: as §1
# [20] = target: Gal(b1-3)GalNAc(a1-3)[Fuc(a1-2)]Gal(b1-4)Glc
# How it was run: as §1
# [21] = target: Gal(b1-3)GalNAc(a1-3)[Fuc(a1-2)]Gal(b1-4)GlcNAc
# How it was run: as §1
# [22] = target: Gal(b1-3)GalNAc(b1-3)Gal
# How it was run: as §1
# [23] = target: Gal(b1-3)GalNAc(b1-3)Gal(a1-4)Gal(b1-4)Glc
# How it was run: as §1
# [24] = target: Gal(b1-3)GalNAc(b1-4)Gal(b1-4)Glc
# How it was run: as §1
# [25] = target: Gal(b1-3)GalNAc(b1-4)[Neu5Ac(a2-3)]Gal(b1-4)Glc
# How it was run: as §1
# [26] = target: Gal(b1-3)GlcNAc
# How it was run: as §1
# [27] = target: Gal(b1-3)GlcNAc(a1-3)Gal(b1-4)GlcNAc
# How it was run: as §1
# [28] = target: Gal(b1-3)GlcNAc(a1-6)Gal(b1-4)GlcNAc
# How it was run: as §1
# [29] = target: Gal(b1-3)GlcNAc(b1-2)Man
# How it was run: as §1
# [30] = target: Gal(b1-3)GlcNAc(b1-2)Man(a1-3)[Gal(b1-3)GlcNAc(b1-2)Man(a1-6)]Man(b1-4)GlcNAc(b1-4)GlcNAc
# How it was run: as §1
# [31] = target: Gal(b1-3)GlcNAc(b1-2)Man(a1-3)[Gal(b1-3)GlcNAc(b1-2)Man(a1-6)]Man(b1-4)GlcNAc(b1-4)[Fuc(a1-6)]GlcNAc
# How it was run: as §1
# [32] = target: Gal(b1-3)GlcNAc(b1-2)Man(a1-3)[GlcNAc(b1-4)][Gal(b1-3)GlcNAc(b1-2)Man(a1-6)]Man(b1-4)GlcNAc(b1-4)GlcNAc
# How it was run: as §1
# [33] = target: Gal(b1-3)GlcNAc(b1-2)[Gal(b1-3)GlcNAc(b1-6)]Man(a1-6)[Gal(b1-3)GlcNAc(b1-2)Man(a1-3)]Man(b1-4)GlcNAc(b1-4)GlcNAc
# How it was run: as §1
# [34] = target: Gal(b1-3)GlcNAc(b1-3)Gal(b1-3)GlcNAc
# How it was run: as §1
# [35] = target: Gal(b1-3)GlcNAc(b1-3)Gal(b1-4)Glc
# How it was run: as §1
# [36] = target: Gal(b1-3)GlcNAc(b1-3)Gal(b1-4)GlcNAc
# How it was run: as §1
# [37] = target: Gal(b1-3)GlcNAc(b1-3)Gal(b1-4)GlcNAc(b1-2)Man(a1-3)[Gal(b1-3)GlcNAc(b1-3)Gal(b1-4)GlcNAc(b1-2)Man(a1-6)]Man(b1-4)GlcNAc(b1-4)GlcNAc
# How it was run: as §1
# [38] = target: Gal(b1-3)GlcNAc(b1-3)Gal(b1-4)GlcNAc(b1-2)[Gal(b1-3)GlcNAc(b1-3)Gal(b1-4)GlcNAc(b1-6)]Man(a1-6)[Gal(b1-3)GlcNAc(b1-3)Gal(b1-4)GlcNAc(b1-2)Man(a1-3)]Man(b1-4)GlcNAc(b1-4)[Fuc(a1-6)]GlcNAc
# How it was run: as §1
# [39] = target: Gal(b1-3)GlcNAc(b1-3)Gal(b1-4)GlcNAc(b1-3)Gal(b1-4)GlcNAc(b1-2)[Gal(b1-3)GlcNAc(b1-3)Gal(b1-4)GlcNAc(b1-3)Gal(b1-4)GlcNAc(b1-6)]Man(a1-6)[Gal(b1-3)GlcNAc(b1-3)Gal(b1-4)GlcNAc(b1-3)Gal(b1-4)GlcNAc(b1-2)Man(a1-3)]Man(b1-4)GlcNAc(b1-4)[Fuc(a1-6)]GlcNAc
# How it was run: as §1
# [40] = target: Gal(b1-3)GlcNAc(b1-3)Gal(b1-4)GlcNAc(b1-6)[Gal(b1-3)GlcNAc(b1-3)]Gal(b1-4)Glc
# How it was run: as §1
# [41] = target: Gal(b1-3)GlcNAc(b1-3)Gal(b1-4)[Fuc(a1-3)]GlcNAc
# How it was run: as §1
# [42] = target: Gal(b1-3)GlcNAc(b1-3)Gal(b1-4)[Fuc(a1-3)]GlcNAc(b1-6)[Gal(b1-3)GlcNAc(b1-3)]Gal(b1-4)Glc
# How it was run: as §1
# [43] = target: Gal(b1-3)GlcNAc(b1-3)GalNAc
# How it was run: as §1
# [44] = target: Gal(b1-3)GlcNAc(b1-6)Gal(b1-4)GlcNAc
# How it was run: as §1
# [45] = target: Gal(b1-3)GlcNAc(b1-6)GalNAc
# How it was run: as §1
binder,measurement,setting,value
Mg3lysM (Mycosphaerella graminicola) (protein) APQNPPTSCSAAPQPTGTGSPGTVCGSTTFTNYTVKAGDTLGAIAKQYNSGVCDIAKVNGIDNPDYIKPDQVLSIPANCVTPDNTSCVKPVPVITNTCVLGVGSTYTVKSGDSFSAIATSFNITLASLEARNPQIPNYDLIFPGQVINTPLCPNSVCDSIGTYVIESGDIFYNLAQSNNVTVGQLESLNVNVNVTDIHPGDIIILPHNCHNITASA,glycan array binding signal (z-score),[1],-0.16
same,glycan array binding signal (z-score),[2],-0.058
same,glycan array binding signal (z-score),[3],-0.048
same,glycan array binding signal (z-score),[4],-0.112
same,glycan array binding signal (z-score),[5],-0.151
same,glycan array binding signal (z-score),[6],-0.015
same,glycan array binding signal (z-score),[7],-0.094
same,glycan array binding signal (z-score),[8],-0.101
same,glycan array binding signal (z-score),[9],-0.065
same,glycan array binding signal (z-score),[10],0.062
same,glycan array binding signal (z-score),[11],-0.019
same,glycan array binding signal (z-score),[12],0.012
same,glycan array binding signal (z-score),[13],-0.14
same,glycan array binding signal (z-score),[14],-0.107
same,glycan array binding signal (z-score),[15],-0.133
same,glycan array binding signal (z-score),[16],-0.058
same,glycan array binding signal (z-score),[17],-0.076
same,glycan array binding signal (z-score),[18],-0.049
same,glycan array binding signal (z-score),[19],-0.058
same,glycan array binding signal (z-score),[20],-0.097
same,glycan array binding signal (z-score),[21],-0.046
same,glycan array binding signal (z-score),[22],0.131
same,glycan array binding signal (z-score),[23],-0.131
same,glycan array binding signal (z-score),[24],0.049
same,glycan array binding signal (z-score),[25],-0.021
same,glycan array binding signal (z-score),[26],-0.012
same,glycan array binding signal (z-score),[27],0.006
same,glycan array binding signal (z-score),[28],-0.12
same,glycan array binding signal (z-score),[29],-0.123
same,glycan array binding signal (z-score),[30],-0.045
same,glycan array binding signal (z-score),[31],-0.097
same,glycan array binding signal (z-score),[32],-0.136
same,glycan array binding signal (z-score),[33],-0.059
same,glycan array binding signal (z-score),[34],-0.101
same,glycan array binding signal (z-score),[35],-0.065
same,glycan array binding signal (z-score),[36],-0.056
same,glycan array binding signal (z-score),[37],-0.11
same,glycan array binding signal (z-score),[38],0.063
same,glycan array binding signal (z-score),[39],0.15
same,glycan array binding signal (z-score),[40],-0.125
same,glycan array binding signal (z-score),[41],-0.157
same,glycan array binding signal (z-score),[42],0.02
same,glycan array binding signal (z-score),[43],-0.112
same,glycan array binding signal (z-score),[44],-0.046
same,glycan array binding signal (z-score),[45],-0.099
